Measurements as given in PubChem BioAssay AID1347120 (National Center for Advancing Translational Sciences (NCATS), 2019).
Hit rate of the full screen: of about 390,000 compounds, about 930 (0.24%) were called active. The shares of active, inactive and inconclusive entries below differ from those in the screen. The call rests on the fitted dose curve; in most records, active means well fitted activation curve with a large enough effect; inconclusive means small, poorly fitted or top-dose-only effect; inactive means no such curve, though single readings can be large or run the other way. Potencies beside an inconclusive call are fits to weak or partial responses and may not hold up.

Experiment: qHTS for Suppressors of FUS Proteinopathy: Primary screen using FUS-linked yeast assay; further: nearly all actives have a fitted effect of over 55% in size;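 on growth rescue (activation): plate controls were DMSO vehicle for no effect and reference control for full effect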
Conditions: S. cerevisiae FUS-expressing, OD600, 24 h; Potency: growth rescue; growth rescue (activation): at 76.6 µM (top of the series)
Outline: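 Restored growth of FUS-toxic S. cerevisiae, read as 600 nm absorbance after 24 h at 30C in galactose medium (starting OD 0.005). Controls CP55940 and DMSO.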
Potency means the concentration at half of the fitted maximal effect; tags describe the fitted curve by direction and shape.

| Structure (SMILES) | Potency | growth rescue (activation) |
| --- | --- | --- |
| COC(=O)C1=C(c2ccccc2OCc2ccccc2)C[C@@H]2CC[C@H]1N2C(=O)NCc1ccc(OC)c(OC)c1 | inconclusive: 22.4 µM [activator, single point] |  |
| CC(C)=CCSc1nnc([C@@H](N)Cc2c[nH]c3ccccc23)o1 | inconclusive: 25.1 µM [activator, partial curve, poor fit] |  |
| O=C1NC(=O)C2(Cc3ccccc3N3CCCC32)C(=O)N1c1ccccc1 (centres undefined) | inconclusive: 35.5 µM [activator, single point] |  |
| COc1ccc(-c2ccc3c(c2)CN(C(=S)NCCc2ccccc2)Cc2cnnn2-3)cc1 | inactive |  |
| COc1ccc(-c2ccc3c(c2)CN(C(=O)NC2CCCCC2)Cc2cnnn2-3)cc1 | inconclusive: 14.1 µM [activator, partial curve] |  |
| CN(C)C(=O)Oc1c(Cl)cc(Cl)c2ccccc12 | inconclusive: 6.31 µM [activator, partial curve, poor fit] |  |
| CCOP(=S)(OCC)c1ccc(N(C)C)cc1 |  | inconclusive: 10.9% [activator] |
| CCOC(=O)[C@@H]1[C@H]2COc3ccc(Br)cc3[C@@H]2N2C(=O)N(c3cccc(C)c3)C(=O)[C@]12C | inconclusive: 31.6 µM [activator, partial curve, poor fit] |  |
| Cc1ccccc1-n1nc(C)c2c1NC(=O)CSC2c1ccc(N(C)C)cc1 (centres undefined) | inconclusive: 8.91 µM [activator, partial curve, poor fit] |  |
| CC(C)Cn1cc(C(=O)N2CCC3(CC2)OCCO3)c2c3ccccc3n(C)c2c1=O | inconclusive: 25.1 µM [activator, partial curve, poor fit] |  |
| CCCCCc1nc2ccccc2c(=O)n1-c1ccc(C)cc1 | inactive |  |
| COC(=O)C1=C(c2ccc(OCc3ccccc3)cc2)C[C@@H]2CC[C@H]1N2C(=O)NCc1ccccc1OC | inconclusive: 31.6 µM [activator, single point] |  |
| O=c1[nH]c(=S)n(Cc2ccco2)c(O)c1C=NCc1cccs1 | inconclusive: 35.5 µM [activator, partial curve, poor fit] |  |
| Cc1ccc(CN2C(=O)c3ccccc3Sc3ccc(C(=O)N4CCC5(CC4)OCCO5)cc32)cc1 | inconclusive: 35.5 µM [activator, single point] |  |
| Cc1ccc(-c2cc(-c3ccccc3)cc(-c3ccccc3)[n+]2-c2ccccc2)cc1 | inactive |  |
| Cc1nc2cc(C(F)(F)F)ccc2n1C1CCN(Cc2nnnn2Cc2cccs2)CC1 | inconclusive: 44.7 µM [activator, single point] |  |
| O=C1NC(=O)C(CCc2ccncc2)(CCc2ccccn2)C(=O)N1c1ccc(Br)cc1 (centres undefined) | inactive |  |
| Clc1ccc2c(c1)C(c1ccccc1Cl)=NCc1nnc(N3CCN(CCOc4ccccc4)CC3)n1-2 | inconclusive: 4.47 µM [activator, full curve] |  |
| COC(=O)C(O)(c1ccc(N(C)C(=O)OC(C)C)cc1)C(F)(F)F (centres undefined) | inconclusive: 44.7 µM [activator, single point] |  |
| COC(=O)C1=C(c2ccc3ccccc3c2)C[C@@H]2CC[C@H]1N2C(=O)NC1Cc2ccccc2C1 | inconclusive: 17.8 µM [activator, partial curve] |  |

| Structure (SMILES) | Potency | growth rescue (activation) |
| --- | --- | --- |
| O=C1NCN(c2ccccc2)C12CCN(C(c1ccccc1OC(F)(F)F)c1nnnn1-c1ccc3c(c1)OCCO3)CC2 (centres undefined) | inconclusive: 3.55 µM [activator, full curve, poor fit] |  |
| O=c1c2ccccc2nc(/C=C/c2ccccc2)n1-c1ccccc1O | inconclusive: 50.1 µM [activator, single point] |  |
| CCN(CC)P(=O)(NC(=O)C(Cl)(Cl)Cl)N(CC)CC.[Cl-].[Cl-].[Cl-].[Nd+3] | inactive |  |
| Cc1ccc(Cn2nnnc2CN2CCC(n3nnc4ccccc43)CC2)cc1 | inconclusive: 31.6 µM [activator, partial curve, poor fit] |  |
| Cc1nn(C)c(C)c1/C=C1/CC2C3CC=C4CC(O)CCC4(C)C3CCC2(C)C1=O (centres undefined) | inactive |  |
| COc1cccc(C(c2nnnn2-c2ccc3c(c2)OCCO3)N2CCC3(CC2)C(=O)NCN3c2ccccc2)c1OC (centres undefined) | inconclusive: 11.2 µM [activator, partial curve] |  |
| CCN1C(=O)C(=Cc2ccc(C)s2)C(=O)N(CC)C1=S | inconclusive: 22.4 µM [activator, single point] |  |
| O=C1NC(=O)C(=Cc2ccc(Cl)cc2)C(=O)N1 | inactive |  |
| COc1cc(C(c2c(C)[nH]n(-c3ccccc3)c2=O)c2c(C)[nH]n(-c3ccccc3)c2=O)cc(OC)c1OC | inconclusive: 35.5 µM [activator, partial curve] |  |
| Cc1nn(Cc2ccc(Cl)cc2Cl)c(Cl)c1C(=O)O | inconclusive: 28.2 µM [activator, single point] |  |
| COc1ccc(-n2nnnc2C(c2cccs2)N2CCC3(CC2)C(=O)NCN3c2ccccc2)cc1 (centres undefined) | inconclusive: 12.6 µM [activator, partial curve, poor fit] |  |
| COCCCn1c(-c2ccc(OC)cc2)cc(C(=O)NC2CCCCCCC2)c1C | inconclusive: 28.2 µM [activator, partial curve, poor fit] |  |
| CC(=O)c1cn(CCCOc2ccccc2)c2ccccc12 | inactive |  |
| COc1ccc(-n2nnnc2C(c2cccc(OC)c2OC)N2CCC(n3c(=O)[nH]c4ccccc43)CC2)cc1 (centres undefined) | inconclusive: 17.8 µM [activator, partial curve, poor fit] |  |
| O=C1NCN(c2ccccc2)C12CCN(C(c1ccccc1)c1nnnn1-c1ccc3c(c1)OCCO3)CC2 (centres undefined) | inconclusive: 15.8 µM [activator, partial curve, poor fit] |  |
| O=C(OCc1ccccc1)N1CCC2CC1c1cc(N3Cc4ccccc4-n4nncc4C3)ccc12 (centres undefined) | inconclusive: 28.2 µM [activator, partial curve] |  |
| COC(=O)C1=C(c2cccc(OC)c2OC)C[C@@H]2CC[C@H]1N2C(=O)NCc1cccc2ccccc12 | inconclusive: 28.2 µM [activator, partial curve] |  |
| COC(=O)C1=C(c2ccccc2OCc2ccccc2)C[C@@H]2CC[C@H]1N2C(=O)NCc1ccc(Cl)cc1 | active: 31.6 µM |  |
| Cc1cccc(CN2C(=O)CN=C(c3ccccc3Cl)c3cc(Cl)ccc32)c1 | inconclusive: 22.4 µM [activator, partial curve] |  |
| COC(=O)C1=C(c2ccc(F)cc2F)C[C@@H]2CC[C@H]1N2C(=O)N1CCCC1 | inactive |  |

| Structure (SMILES) | Potency | growth rescue (activation) |
| --- | --- | --- |
| CN1Cc2ccccc2-n2nncc2C1 | inactive |  |
| CCOc1ccc2nc(N3CCC(C(=O)N4CCC5(CC4)OCCO5)CC3)sc2c1 |  | inconclusive: 92% [activator] |
| Cc1ccccc1CN1CCNCC1 | inactive |  |
| CCCCN1C(=O)NC(=O)C2(Cc3c(nc4c(C)cccn4c3=O)N3CCc4ccccc4C32)C1=O (centres undefined) | inconclusive: 50.1 µM [activator, single point] |  |
| CCc1ccc(OCCCN=C(C)c2c(O)n(C)c(=O)n(C)c2=O)cc1 | inconclusive: 39.8 µM [activator, single point] |  |
| Cc1c(C(c2ccc(O)cc2)c2c(O)c3ccccc3oc2=O)c(=O)n(-c2ccccc2)n1C (centres undefined) | inconclusive: 22.4 µM [activator, partial curve] |  |
| CCOc1ccc(CN2C(=O)c3ccccc3Sc3ccc(C(=O)N4CCC5(CC4)OCCO5)cc32)cc1 | inconclusive: 7.94 µM [activator, partial curve] |  |
| CC(=O)O[C@@]12CO[C@@H]1C[C@H](O)[C@@]1(C)C(=O)[C@H](O)C3=C(C)[C@@H](OC(=O)[C@H](O)[C@@H](NC(=O)c4ccccc4)c4ccccc4)C[C@@](O)([C@@H](OC(=O)c4ccccc4)C12)C3(C)C (some centres undefined) | inconclusive: 15.8 µM [activator, partial curve] |  |
| NNC(=O)CN1C(=O)CN=C(c2ccccc2)c2cc(Br)ccc21 | inconclusive: 31.6 µM [activator, partial curve, poor fit] |  |
| N#CCC[C@@H]1CC[C@]2(CCCN(Cc3ccncc3)C2)O1 | inactive |  |
| COC(=O)C1=C(c2ccc(-c3ccccc3)c(F)c2)C[C@@H]2CC[C@H]1N2C(=O)NCCOc1ccc(OC)cc1 | inconclusive: 22.4 µM [activator, partial curve] |  |
| COC(=O)C1=C(c2ccc(Cl)c(C(F)(F)F)c2)C[C@@H]2CC[C@H]1N2C(=O)NCCOc1ccccc1Cl | inconclusive: 15.8 µM [activator, partial curve] |  |
| Cc1ccc(-[n+]2c(Cc3nn(-c4ccccc4)c(C)[n+]3-c3ccc(C)cc3)nn(-c3ccccc3)c2C)cc1 | inconclusive: 20 µM [activator, partial curve, poor fit] |  |
| COC(=O)[C@@]1(O)c2c(oc3cccc(O)c3c2=O)C=C[C@H]1O | inactive |  |
| S=C(NCCc1ccccc1)N1Cc2cc(Br)ccc2-n2nncc2C1 | inactive |  |
| Cc1cc(C)c(C(=O)CN2CCOCC2)c(C)c1 | inactive |  |
| COC(=O)C1=C(c2ccc(F)cc2OCc2ccccc2)C[C@@H]2CC[C@H]1N2C(=O)NCCCc1ccccc1 | inconclusive: 44.7 µM [activator, single point] |  |
| COC(=O)C1=C(c2ccc(-c3ccccc3)c(F)c2)C[C@@H]2CC[C@H]1N2C(=O)NCc1ccco1 | inconclusive: 35.5 µM [activator, single point] |  |
| Cc1nc2cc(C(F)(F)F)ccc2n1C1CCN(Cc2nnnn2Cc2ccc3c(c2)OCO3)CC1 | inconclusive: 50.1 µM [activator, single point] |  |
